Experimental findings from PubChem BioAssay AID488969 (Vanderbilt High Throughput Screening Facility, 2010) are described below.

Whole data set: some 110,000 compounds, median “z-score” near -0.1, cut for the highest 2% near 2. This is one part of the list.

The target in this assay is Metabotropic glutamate receptor 8 (Rattus norvegicus) (UniProt P70579). Put plainly: rat mGluR8 modulators via GIRK flux, primary screen, cell-based, thallium flux, HTS (AID 488969). The conditions noted are these: HEK293 rat mGluR8, GIRK (G protein-gated inwardly rectifying potassium channel) thallium flux, FluoZin2; at 10 µM; stronger effect = higher value; submaximal glutamate (EC20) added with thallium.
UniProt P70579, sequence (P70579 whole entry, looked up): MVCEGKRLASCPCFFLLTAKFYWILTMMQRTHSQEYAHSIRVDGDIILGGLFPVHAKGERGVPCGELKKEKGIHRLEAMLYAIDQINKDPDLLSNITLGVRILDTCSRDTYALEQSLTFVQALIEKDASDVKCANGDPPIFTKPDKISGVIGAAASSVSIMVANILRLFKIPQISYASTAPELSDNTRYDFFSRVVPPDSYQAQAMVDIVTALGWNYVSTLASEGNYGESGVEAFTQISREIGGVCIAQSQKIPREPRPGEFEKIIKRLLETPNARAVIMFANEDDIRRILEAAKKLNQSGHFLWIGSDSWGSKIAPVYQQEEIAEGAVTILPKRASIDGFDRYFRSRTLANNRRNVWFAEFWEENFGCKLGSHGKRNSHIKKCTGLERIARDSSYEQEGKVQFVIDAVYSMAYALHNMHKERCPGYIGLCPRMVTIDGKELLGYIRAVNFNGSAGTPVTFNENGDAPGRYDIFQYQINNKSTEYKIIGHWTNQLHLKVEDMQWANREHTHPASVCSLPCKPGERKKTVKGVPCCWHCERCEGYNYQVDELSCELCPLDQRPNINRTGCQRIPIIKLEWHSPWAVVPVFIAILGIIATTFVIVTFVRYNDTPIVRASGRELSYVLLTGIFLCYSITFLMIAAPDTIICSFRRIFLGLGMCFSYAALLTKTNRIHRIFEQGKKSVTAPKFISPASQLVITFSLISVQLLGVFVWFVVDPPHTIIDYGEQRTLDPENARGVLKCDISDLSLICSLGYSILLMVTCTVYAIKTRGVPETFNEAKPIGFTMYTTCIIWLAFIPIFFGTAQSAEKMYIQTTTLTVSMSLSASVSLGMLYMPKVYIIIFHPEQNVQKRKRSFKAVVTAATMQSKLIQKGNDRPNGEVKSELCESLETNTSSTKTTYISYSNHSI
`Cn1nc(C(=O)N2CCOCC2)c2ccccc2c1=O` had a z-score of 0.931. Take `COc1ccc(Cn2nnnc2C(c2cccs2)N2CCN(c3ccc([N+](=O)[O-])cc3)CC2)cc1` (stereo unspecified): the z-score stood at 0.00513.

`Cc1c(NC(=O)CN2C(=O)c3ccccc3S2(=O)=O)c(=O)n(-c2ccccc2)n1C` returned a z-score of -1.18. For `O=C(CN1C(=O)C2CC=CCC2C1=O)NC1=NCCS1` (stereo unspecified), the z-score worked out at 0.0586. Turning to `Cc1ccc2nc(NC(=O)C3CCN(S(=O)(=O)c4cccnc4)CC3)sc2c1`, the z-score is 0.122. For the molecule `OC1(C(F)(F)F)CC(O)(C(F)(F)F)n2nc(-c3ccccc3)cc2N1` (stereo unspecified), the z-score was 0.0743.

Take `Cc1cc(NC(=O)CCC(=O)N(c2ccc(F)cc2)C(C(=O)NC2CCCC2)c2ccncc2)no1` (stereo unspecified): the z-score amounted to 0.0425. Turning to `O=C(CC12CC3CC(CC(C3)C1)C2)NC(=S)N1CCCCC1`, the z-score was determined as 2.58. As for `Cc1ccc(O)c(C(=O)c2cnc3c(c2)COc2ccccc2-3)c1`, the z-score was -0.0344.

In turn, `O=C1CCCN1CCCn1cnc2c([nH]c3ccc(F)cc32)c1=O` yielded a z-score of 0.098.

`O=S(=O)(CCn1cccc1)CCn1cccc1` registered a z-score of -0.116. In turn, `CCOC(=O)C(=CNc1cc(C)ccc1C)C(=O)OCC` registered a z-score of -1.37. In turn, `CC(C)CCNC(=O)c1cc([N+](=O)[O-])ccc1N1CCOCC1` came in with a z-score of -0.139.

As to `COc1ccc(S(=O)(=O)N(CC(C)C)CC(C)C)c2cccnc12`, the z-score was -0.383. Molecule `CCn1c(COc2ccc3c(c2)OCO3)nnc1SCC(=O)O` registered a z-score of 0.461. The molecule `CCOc1ccc(CNC(=O)CCn2c(=O)oc3ccccc32)cc1` returned a z-score of 0.64. For `CC(C)CCNC(=O)C(C)N(Cc1ccc(F)cc1)C(=O)c1ccc(CN2CCCCC2)o1` (stereo unspecified), the z-score was -2.97. With `CN(C)S(=O)(=O)c1ccc(C(=O)N(c2ccccn2)c2ccccn2)cc1`, the z-score turned out to be 1.58.

`COc1ccc(C(C#N)Nc2ccccc2)cc1` (stereo unspecified) had a z-score of -0.0463. With `COc1ccc2c(c1)CCc1c(C(=O)N3CCCC3)noc1-2`, the z-score is -0.0276.

In the case of `CC(Nc1cc(N2CCN(S(C)(=O)=O)CC2)ccc1[N+](=O)[O-])c1ccccc1` (stereo unspecified), the z-score was -0.53. For `CCCN(CCO)Cc1ccc(Cl)c(Cl)c1`, the z-score stood at 0.18.

In turn, `Cc1nc(NC(=O)/C=C/c2ccccc2)sc1C(=O)Nc1cccc(Cl)c1` gave a z-score of -0.114. Molecule `CSc1nnc(-c2ccccc2)n1N` had a z-score of 0.0147. Then `O=C(CCSc1nnc2scc(-c3ccccc3)n12)NCc1ccc2c(c1)OCO2`, with -0.963. In the case of `Cc1cc(C)cc(N2CC(c3nc4ccccc4n3C)CC2=O)c1` (stereo unspecified), the z-score was -0.0707.

`O=C(CCCn1c(SCC(=O)c2ccccc2)nc2ccccc2c1=O)NCC1CCCO1` (stereo unspecified): the z-score is -0.0998. With `O=S(=O)(N/N=C/c1c(F)cccc1Cl)c1ccccc1` the figure was -0.12. As for `c1ccc(-c2cnc(-c3ccccc3)nc2)cc1`, the z-score was -0.0392. Molecule `CC1(NC(=O)NCc2ccco2)CCS(=O)(=O)C1` (stereo unspecified) showed a z-score of -0.182. In turn, `COc1ccc(NC(=S)Nc2nc(CC(=O)Nc3ccccc3OC)cs2)cc1` registered a z-score of -0.494.
